Laboratory results as given in paper PMC8514785.
Where a chain is given by its changes, count along the chain named. In names and notes the source's numbering stands. Results are given in words; binding and its absence hold for the method and conditions named. Binding seen in cells or lysates may run through a third protein. Some results given as binding are weak or reduced against the parent protein; the word gives no strength. For some assays here: Tags and fused reporters may be left off the sequences shown.

Chains of the proteins cited; added tags and fusions are not shown.
UniProt P05804: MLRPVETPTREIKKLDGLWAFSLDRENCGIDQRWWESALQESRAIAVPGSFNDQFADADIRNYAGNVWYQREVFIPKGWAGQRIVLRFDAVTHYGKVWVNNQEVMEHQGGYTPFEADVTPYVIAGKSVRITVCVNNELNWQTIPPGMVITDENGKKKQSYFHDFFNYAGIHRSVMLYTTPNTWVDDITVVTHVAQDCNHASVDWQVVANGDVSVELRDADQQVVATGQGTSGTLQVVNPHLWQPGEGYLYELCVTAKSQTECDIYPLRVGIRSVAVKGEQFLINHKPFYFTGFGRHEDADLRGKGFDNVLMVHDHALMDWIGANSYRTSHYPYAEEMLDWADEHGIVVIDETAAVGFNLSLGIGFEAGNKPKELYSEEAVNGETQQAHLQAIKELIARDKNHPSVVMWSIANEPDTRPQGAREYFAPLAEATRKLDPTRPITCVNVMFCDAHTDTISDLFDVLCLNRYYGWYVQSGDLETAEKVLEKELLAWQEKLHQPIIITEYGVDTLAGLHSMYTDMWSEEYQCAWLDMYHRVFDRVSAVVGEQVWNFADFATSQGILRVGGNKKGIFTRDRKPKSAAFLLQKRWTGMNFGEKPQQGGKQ

Key:
[1] = molecular target: T1, nVenus-SRFR1 (SUPPRESSOR OF rps4-RLD1) (Arabidopsis thaliana) (UniProt F4JS25); test: split reporter; BiFC in N. benthamiana leaves; Agrobacterium strains with the BiFC vectors mixed at equal density and infiltrated; imaged 48 hpi by confocal microscopy (YFP reconstitution)
T1 sequence: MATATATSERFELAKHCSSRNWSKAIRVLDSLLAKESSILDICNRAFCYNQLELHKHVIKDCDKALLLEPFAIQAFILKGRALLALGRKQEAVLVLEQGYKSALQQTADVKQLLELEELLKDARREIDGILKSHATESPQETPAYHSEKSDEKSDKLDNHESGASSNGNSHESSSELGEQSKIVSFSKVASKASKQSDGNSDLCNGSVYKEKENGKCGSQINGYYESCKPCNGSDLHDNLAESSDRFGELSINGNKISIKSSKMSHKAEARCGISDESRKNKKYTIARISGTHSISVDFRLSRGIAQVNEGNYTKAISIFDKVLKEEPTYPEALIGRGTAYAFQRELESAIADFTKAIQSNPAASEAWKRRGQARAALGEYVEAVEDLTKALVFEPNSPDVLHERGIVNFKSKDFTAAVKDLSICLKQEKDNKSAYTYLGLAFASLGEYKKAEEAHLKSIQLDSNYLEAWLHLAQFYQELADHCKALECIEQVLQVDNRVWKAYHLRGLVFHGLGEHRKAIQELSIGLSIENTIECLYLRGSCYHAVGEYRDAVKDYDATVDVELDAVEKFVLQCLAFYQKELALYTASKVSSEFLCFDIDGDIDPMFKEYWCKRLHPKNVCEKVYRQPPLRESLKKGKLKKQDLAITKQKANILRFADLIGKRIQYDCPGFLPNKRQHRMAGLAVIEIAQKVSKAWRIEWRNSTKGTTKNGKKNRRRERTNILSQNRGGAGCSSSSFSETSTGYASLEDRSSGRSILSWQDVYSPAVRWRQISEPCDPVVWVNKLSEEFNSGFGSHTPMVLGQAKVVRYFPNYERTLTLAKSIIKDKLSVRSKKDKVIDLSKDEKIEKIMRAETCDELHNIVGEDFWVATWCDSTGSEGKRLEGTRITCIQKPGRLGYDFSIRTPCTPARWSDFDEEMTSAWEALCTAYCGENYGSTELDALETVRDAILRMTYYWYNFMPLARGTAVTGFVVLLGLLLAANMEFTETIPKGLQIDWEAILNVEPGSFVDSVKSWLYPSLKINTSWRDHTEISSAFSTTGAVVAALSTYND

[2] = molecular target: T2, HA-PAD4 (Arabidopsis thaliana) (UniProt Q9S745); test: co-IP; co-expression in agro-infiltrated N. benthamiana leaves, 48 h; RIPA buffer; lysate precleared with IgG agarose; anti-HA-conjugated beads, 3 h at 4°C; blots with anti-HA and anti-Myc
T2 sequence: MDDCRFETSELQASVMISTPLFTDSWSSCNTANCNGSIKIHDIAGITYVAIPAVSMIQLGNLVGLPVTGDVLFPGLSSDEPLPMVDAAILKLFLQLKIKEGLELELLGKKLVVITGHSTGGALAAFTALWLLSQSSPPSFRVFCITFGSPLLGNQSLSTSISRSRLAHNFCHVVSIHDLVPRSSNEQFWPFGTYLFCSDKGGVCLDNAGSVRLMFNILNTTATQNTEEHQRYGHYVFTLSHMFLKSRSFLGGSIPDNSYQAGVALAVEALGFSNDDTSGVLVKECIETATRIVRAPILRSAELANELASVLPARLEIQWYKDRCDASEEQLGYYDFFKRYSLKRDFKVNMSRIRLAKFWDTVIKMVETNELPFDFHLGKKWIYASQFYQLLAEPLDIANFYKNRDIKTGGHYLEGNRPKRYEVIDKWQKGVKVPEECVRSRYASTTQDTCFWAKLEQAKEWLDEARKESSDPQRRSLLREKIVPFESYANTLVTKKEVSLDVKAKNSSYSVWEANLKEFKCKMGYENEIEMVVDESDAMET

[3] = molecular target: T3, HA-SRFR1 (Arabidopsis thaliana) (UniProt F4JS25); test: as above
T3 sequence: T1 sequence

cCFP-GUS (β-glucuronidase), negative control (from UniProt P05804 1-603) (enzyme)
binding [1]: no binding

B1: Myc-EDS1^WT (protein, UniProt Q9XF23 1-623)
chain: MAFEALTGINGDLITRSWSASKQAYLTERYHKEEAGAVVIFAFQPSFSEKDFFDPDNKSSFGEIKLNRVQFPCMRKIGKGDVATVNEAFLKNLEAVIDPRTSFQASVEMAVRSRKQIVFTGHSSGGATAILATVWYLEKYFIRNPNVYLEPRCVTFGAPLVGDSIFSHALGREKWSRFFVNFVTRFDIVPRITLARKASVEETLPHVLAQLDPRNSSVQESEQRITEFYTSVMRDTSTVANQAVCELTGSAEAILETLSSFLELSPYRPAGTFVFSTEKRLVAVNNSDAILQMLFYTCQASDEQEWSLIPFRSIRDHHSYEELVQSMGMKLFNHLDGENSIESSLNDLGVSTRGRQYVQAALEEEKKRVENQKKIIQVIQQERFLKKLAWIEDEYKPKCQAHKNGYYDSFKVSNEENDFKANVKRAELAGVFDEVLGLLKKCQLPDEFEGDIDWIKLATRYRRLVEPLDIANYHRHLKNEDTGPYMKRGRPTRYIYAQRGYEHHILKPNGMIAEDVFWNKVNGLNLGLQLEEIQETLKNSGSECGSCFWAEVEELKGKPYEEVEVRVKTLEGMLREWITAGEVDEKEIFLEGSTFRKWWITLPKNHKSHSPLRDYMMDEITDT
binding [2]: binds | binding [3]: binds

B2: Myc-EDS1^K478R (protein, UniProt Q9XF23 1-623)
chain: B1 chain with K478R
binding [2]: binds | binding [3]: no binding
